Assay results published in the supplement of paper PMC4967469.
By IC50 is meant the dose at which the fit gives 50% viability; where the fit passes the top or lowest dose, that dose stands as a limit. The AUC spans the tested range (256-fold, ending at the top dose) of the same fit; the more sensitive the line, the further below 1. For part of these data: The top dose, if marked as inferred, was derived from the fitted curves, not read from the paper.

Tests used:
[1] = compound: CCc1c2c(nc3ccc(O)cc13)-c1cc3c(c(=O)n1C2)COC(=O)[C@]3(O)CC [SN-38]; test: Viability of human cancer cell lines after 72 h of drug (GDSC screen); conditions: top dose 0.05 µM; top dose inferred
Method: (§1)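 Human cancer cell lines in 384-well plates, medium with 10% serum, drug for 72 h over a 256-fold dose range (nine 2-fold or five 4-fold steps up to the top dose). Adherent lines were fixed and stained with the nucleic acid dye Syto60, suspension lines read with resazurin; signal relative to control wells, capped at 0 and 100%. One two-parameter sigmoid per drug and line, fitted in a mixed model over all curves with the slope shared within a line.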

[2] = compound: CC(C)(C)c1nc(-c2cccc(NS(=O)(=O)c3c(F)cccc3F)c2F)c(-c2ccnc(N)n2)s1 [Dabrafenib]; test: as above; conditions: top dose 10 µM
Method: as §1

Cell Line	AUC [1]	IC50 [1]	AUC [2]	IC50 [2]
MOLM-13 (acute myeloid leukaemia, suspension)	0.481	2.78 nM	0.714	2400 nM
IST-MES1 (mesothelioma, adherent)	0.749	16.3 nM	0.984	> 10000 nM
NUGC-3 (stomach, adherent)	0.466	2.49 nM	0.929	> 10000 nM
HO-1-N-1 (head and neck, adherent)	0.325	1.07 nM	0.958	> 10000 nM
HPAF-II (pancreas, adherent)	0.707	14.5 nM	0.796	6410 nM
TE-10 (oesophagus, adherent)	0.58	5.14 nM	0.973	> 10000 nM
TCCSUP (bladder, adherent)	0.793	26.5 nM	0.982	> 10000 nM
GP5d (large intestine, adherent)	0.886	45.3 nM	0.99	> 10000 nM
J82 (bladder, adherent)	0.504	3.2 nM	0.987	> 10000 nM
A204 (rhabdomyosarcoma, adherent)	0.471	2.55 nM	0.79	5950 nM
KYSE-270 (oesophagus, adherent)	0.49	2.95 nM	0.99	> 10000 nM
SW1116 (large intestine, adherent)	0.944	> 50 nM	0.93	> 10000 nM
H2810 (mesothelioma, adherent)	0.811	30.1 nM	0.954	> 10000 nM
SW1088 (glioma, adherent)	0.793	30.7 nM	0.936	> 10000 nM
MOLT-4 (lymphoblastic leukaemia, suspension)	0.288	0.902 nM	0.855	5730 nM
BFTC-909 (kidney, adherent)	0.534	3.85 nM	0.976	> 10000 nM
MCF7 (breast, adherent)	0.427	1.95 nM	0.925	> 10000 nM
JAR (urogenital system, adherent)	0.829	30.3 nM	0.963	> 10000 nM
HCT-116 (large intestine, adherent)	0.581	5.14 nM	0.777	3810 nM
COR-L105 (lung adenocarcinoma, adherent)	0.902	> 50 nM	0.974	> 10000 nM
SW872 (soft tissue, adherent)	0.571	4.8 nM	0.2	90.8 nM
NCI-H1299 (large cell lung carcinoma, adherent)	0.79	28.1 nM	0.823	7740 nM
KOSC-2 (head and neck, adherent)	0.622	6.89 nM	0.866	9580 nM
CAMA-1 (breast, adherent)	0.906	> 50 nM	0.979	> 10000 nM

Cell Line	AUC [1]	IC50 [1]	AUC [2]	IC50 [2]
COLO-829 (melanoma, adherent)	0.914	> 50 nM	0.281	109 nM
COLO-792 (melanoma, adherent)	0.903	> 50 nM	0.982	> 10000 nM
BHY (head and neck, adherent)	0.529	3.74 nM	0.979	> 10000 nM
CAL-54 (kidney, adherent)	0.587	5.61 nM	0.963	> 10000 nM
H2803 (mesothelioma, adherent)	0.875	> 50 nM	0.971	> 10000 nM
U-2-OS (osteosarcoma, adherent)	0.713	13.3 nM	0.979	> 10000 nM
TGBC24TKB (biliary tract, adherent)	0.915	> 50 nM	0.989	> 10000 nM
RERF-GC-1B (stomach, adherent)	0.717	14 nM	0.982	> 10000 nM
SNU-398 (liver, adherent)	0.757	17.9 nM	0.967	> 10000 nM
PCI-38 (head and neck, adherent)	0.813	27.1 nM	0.965	> 10000 nM
NCI-H196 (small cell lung carcinoma, adherent)	0.947	> 50 nM	0.932	> 10000 nM
MZ7-mel (melanoma, adherent)	0.701	11.8 nM	0.234	102 nM
Hs-578-T (breast, adherent)	0.841	37.9 nM	0.986	> 10000 nM
Jurkat (T-cell leukaemia, suspension)	0.426	2.04 nM	0.916	> 10000 nM
MKN1 (stomach, adherent)	0.819	30.3 nM	0.966	> 10000 nM
NCI-H1355 (lung adenocarcinoma, adherent)	0.897	> 50 nM	0.957	> 10000 nM
ChaGo-K-1 (non-small cell lung carcinoma, adherent)	0.909	> 50 nM	0.973	> 10000 nM
HL-60 (acute myeloid leukaemia, suspension)	0.774	17.6 nM	0.986	> 10000 nM
U031 (kidney, adherent)	0.356	1.23 nM	0.789	4580 nM
SW900 (lung squamous cell carcinoma, adherent)	0.777	23.4 nM	0.977	> 10000 nM
RT-112 (bladder, adherent)	0.777	21.6 nM	0.945	> 10000 nM
ME-180 (cervix, adherent)	0.421	1.88 nM	0.945	> 10000 nM
MFE-319 (endometrium, adherent)	0.903	> 50 nM	0.984	> 10000 nM
OSC-19 (head and neck, adherent)	0.755	17.5 nM	0.969	> 10000 nM

Cell Line	AUC [1]	IC50 [1]	AUC [2]	IC50 [2]
PC-3 (prostate, adherent)	0.73	16.5 nM	0.981	> 10000 nM
RS4-11 (leukaemia, suspension)	0.49	2.95 nM	0.96	> 10000 nM
NCI-H2085 (lung adenocarcinoma, adherent)	0.95	> 50 nM	0.971	> 10000 nM
SCC-15 (head and neck, adherent)	0.644	9 nM	0.882	> 10000 nM
SK-CO-1 (large intestine, adherent)	0.334	1.11 nM	0.942	> 10000 nM
A172 (glioma, adherent)	0.728	13.5 nM	0.933	> 10000 nM
RD (rhabdomyosarcoma, adherent)	0.737	16.1 nM	0.918	> 10000 nM
Hs-445 (Hodgkin lymphoma, suspension)	0.404	1.74 nM	0.936	> 10000 nM
SU-DHL-8 (B-cell lymphoma, suspension)	0.821	26.3 nM	0.983	> 10000 nM
COR-L32 (small cell lung carcinoma, suspension)	0.83	> 50 nM	0.961	> 10000 nM
NCI-H2066 (small cell lung carcinoma, adherent)	0.968	> 50 nM	0.972	> 10000 nM
GCT (soft tissue, adherent)	0.374	1.44 nM	0.761	3330 nM
MV-4-11 (leukaemia, suspension)	0.379	1.55 nM	0.8	3880 nM
NCI-H2030 (lung adenocarcinoma, adherent)	0.724	14.9 nM	0.928	> 10000 nM
KALS-1 (glioma, adherent)	0.77	26.4 nM	0.96	> 10000 nM
MDA-MB-231 (breast, adherent)	0.618	6.72 nM	0.933	> 10000 nM
PANC-10-05 (pancreas, adherent)	0.755	21.5 nM	0.958	> 10000 nM
769-P (kidney, adherent)	0.79	24.5 nM	0.862	9830 nM
MDA-MB-468 (breast, adherent)	0.478	2.73 nM	0.977	> 10000 nM
NCI-H23 (lung adenocarcinoma, adherent)	0.795	22.9 nM	0.951	> 10000 nM
LU-99A (large cell lung carcinoma, adherent)	0.342	1.15 nM	0.961	> 10000 nM
KG-1 (acute myeloid leukaemia, suspension)	–	–	0.823	5070 nM
ML-2 (acute myeloid leukaemia, suspension)	0.513	3.38 nM	0.975	> 10000 nM
LNCaP-Clone-FGC (prostate, adherent)	0.734	16.2 nM	0.888	> 10000 nM

Cell Line	AUC [1]	IC50 [1]	AUC [2]	IC50 [2]
SK-LU-1 (lung adenocarcinoma, adherent)	0.601	6.38 nM	0.882	> 10000 nM
ES3 (Ewing sarcoma, adherent)	0.337	1.07 nM	0.813	5760 nM
H-EMC-SS (chondrosarcoma, adherent)	0.828	43.8 nM	0.811	7330 nM
KP-4 (pancreas, adherent)	0.533	3.82 nM	0.982	> 10000 nM
MDA-MB-157 (breast, adherent)	0.701	11.7 nM	0.978	> 10000 nM
HT-144 (melanoma, adherent)	0.751	18.1 nM	0.232	93.3 nM
NCI-H2170 (lung squamous cell carcinoma, adherent)	0.731	14.7 nM	0.984	> 10000 nM
CMK (acute myeloid leukaemia, suspension)	0.705	10.6 nM	0.953	> 10000 nM
OAW-28 (ovary, adherent)	0.521	3.61 nM	0.98	> 10000 nM
SNU-1040 (large intestine, adherent)	0.977	> 50 nM	0.959	> 10000 nM
NCI-H1793 (lung adenocarcinoma, adherent)	0.915	> 50 nM	0.978	> 10000 nM
NCI-H1915 (large cell lung carcinoma, adherent)	0.775	20.2 nM	0.832	6580 nM
LC-2-ad (lung adenocarcinoma, adherent)	0.378	1.42 nM	0.966	> 10000 nM
OVCAR-3 (ovary, adherent)	0.612	6.56 nM	0.983	> 10000 nM
HCC1806 (breast, adherent)	0.421	1.94 nM	0.963	> 10000 nM
SN12C (kidney, adherent)	0.582	5.39 nM	0.87	> 10000 nM
HeLa (cervix, adherent)	0.611	6.22 nM	0.988	> 10000 nM
H2804 (mesothelioma, adherent)	–	–	0.983	> 10000 nM
LOXIMVI (melanoma, semi-adherent)	0.439	2.18 nM	0.098	< 39.1 nM
OVCAR-8 (ovary, adherent)	–	–	0.989	> 10000 nM
PL18 (pancreas, adherent)	–	–	0.821	5760 nM
IGROV-1 (ovary, adherent)	–	–	0.933	> 10000 nM
